Consider 24 sequences from the supplement of paper PMC11417369.

Some of the results follow.

The subject of this experiment is PfHDP1 homeodomain (GST-tagged). Description: gcPBM binding intensity (ln(normalized median fluorescence intensity)); higher = stronger DNA binding. Put shortly:
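For binding intensity, the highest Masliner-normalised natural-log median intensity across replicate spots of either probe orientation was taken. Protein bound to the array was stained with Alexa488 anti-GST antibody and scanned at 488 nm. The protein, GST-tagged P. falciparum DNA-binding domains from E. coli at about 25 μg on average, had been applied for 1 h to an Agilent 4 × 180k array of primer-extended double-stranded 36-bp intergenic genomic probes and negative controls.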
On to “AATCTAATATAATGCACACATAAAAAAAAATCAAAC [CACACA_site3633]”, for which the “gcPBM binding intensity (ln)” value amounted to 10.7.

Turning to “TATTATATGTAGTTGAGTACATATAAATACATATAT [XGTACX_site7933]”, the “gcPBM binding intensity (ln)” value worked out at 6.43.

Turning to “AAATAGTTAAAAAGGCGTACACATAAATAAATAAAT [XGTACX_site2096]”, the “gcPBM binding intensity (ln)” value was 6.8.

For “GTATATATATATATATATATAATAGTAACTTTTACT [CACACA_negctrl_site608]”, the “gcPBM binding intensity (ln)” value was 7.01.

Regarding “TGTAGTCTGGAGAAAAGTACATAGTATCTGGTAACA [XGTACX_site4940]”, the “gcPBM binding intensity (ln)” value came out at 6.51.

Consider “TTTTAATTTTAAAAATGTACTTTTATTATTTTTAAT [XGTACX_site8300]”, for which the “gcPBM binding intensity (ln)” value worked out at 6.19.

Regarding “ATGAATAAAAAAGGTGGTACATATATATATATATAT [XGTACX_site7893]”, the “gcPBM binding intensity (ln)” value stood at 9.39.

As to “ATACATATATAATTATGTACGTATATTTTATATAAC [XGTACX_site4292]”, the “gcPBM binding intensity (ln)” value was determined as 6.14.

Take “AAAATAATATAAATAATATAAGTGAGCATATATATA [TGCATGCA_negctrl_site527]”: the “gcPBM binding intensity (ln)” value amounted to 8.69.

In the case of “TGTCTTGTAAATTATTGTACTATTTAAAGTATAAAA [XGTACX_site7863]”, the “gcPBM binding intensity (ln)” value was 6.08.

“TACAGACATACATACACACATACATACAGACATACA [CACACA_site1941]”: the “gcPBM binding intensity (ln)” value was 6.84.

“CACACGCACGAACACACACACACACGCACGCACATA [CACACA_site6305]”: the “gcPBM binding intensity (ln)” value was determined as 8.28.

As to “TATATTTAATTATTTTGTACTCATATAAAGATGATG [XGTACX_site5488]”, the “gcPBM binding intensity (ln)” value amounted to 6.58.

For the sequence “AAAAAAAAAATATTTGAACACACGAGGATATATAAA [CACACA_site139]”, the “gcPBM binding intensity (ln)” value amounted to 6.54.

For the sequence “TACATATTTACTATCACACACACGATATAAATAAAT [CACACA_site6701]”, the “gcPBM binding intensity (ln)” value was found to be 6.63.

For “CATATAGATTTGTTCACACACACACTAAAAAAAAAA [CACACA_site7212]”, the “gcPBM binding intensity (ln)” value is 6.7.

Take “ATATTCAATTCATACACACACAATTTAAGAATGATA [CACACA_site3883]”: the “gcPBM binding intensity (ln)” value is 6.7.

With “AATAAAATTTGCGATGCACACAGAATAGCTAATATG [CACACA_site8983]”, the “gcPBM binding intensity (ln)” value came out at 8.15.

“TTATTTTACTTTTATGCAACTAAAAATATTGCTATA [XGTACX_negctrl_site277]”: the “gcPBM binding intensity (ln)” value was determined as 8.21.

As for “ACAAATGTGAGAAAGACACACATATAATAAAAAACA [CACACA_site1156]”, the “gcPBM binding intensity (ln)” value came to 6.47.

Regarding “TATATAAGAATTTTTACACACATGAAAATGTAGATA [CACACA_site3735]”, the “gcPBM binding intensity (ln)” value came to 6.19.

Turning to “TATTTAATGTGATACTTATATTATTTTATGATTAAA [GTGCAC_negctrl_site25]”, the “gcPBM binding intensity (ln)” value turned out to be 6.16.

On to “TATACATACTCACCCACACACAAAAAAAAAAAAAAA [CACACA_site862]”, for which the “gcPBM binding intensity (ln)” value turned out to be 6.43.

“AAAAAGGTTATTGGTACACACATATGTATATATATA [CACACA_site552]”: the “gcPBM binding intensity (ln)” value amounted to 7.56.
